From patent US20090130106A1 (UNIVERSITY OF SYDNEY, published 2009)

How the values were obtained:
[1] = target: T1, Trx-CD20-T-Sapphire-K3 (Demibody B); experiment: flow cytometry FRET 407/585 nm on MEC-2 cells; Table 6 rates this as no FRET
T1 construct: also called DBB; CD20-Sapphire-K3
Description: (§1) Suspensions of the human cell lines Raji (CD20⁺, CD45⁺), MEC-2 (CD20⁺, CD45⁺), CCRF-CEM (CD20⁻, CD45⁺) were harvested (500 g, 10 min, room temperature), washed with PBS+5% v/v FCS, centrifuged and resuspended in PBS+5% v/v FCS to a final concentration of 1×10⁶ cells/mL. To label cells with one or both Demibodies, 300 μL cell suspension (3×10⁵ cells) was incubated with 30 μL Demibody (200 μg/mL, Demibody A (DBA; CD45-mOrange-E3), Demibody B (DBB; CD20-T-Sapphire-K3)) for 60 min in the dark at room temperature. Based upon the known immunophenotypes of these cell lines, the following binding patterns are expected.
(§2) The more than 7-fold shift in mean fluorescence detected at 575 nm (red numbers) indicates the binding of DBA to all three cell lines as expected, since they express CD45 which binds to DBA. A minor shift in fluorescence was detected for the binding of DBB on Raji and MEC-2 cells. A minor FRET signal was detected for the Raji cell line.

[2] = target: T2, CD45 on human cell lines (Raji, MEC-2, CCRF-CEM) (human, UniProt P08575 26-1306); experiment: flow cytometry on Raji cells, 488/575 nm
T2 construct: whole, on cells; Endogenous CD45 on the human cell lines; also called pan leukocyte marker
T2 sequence (looked up): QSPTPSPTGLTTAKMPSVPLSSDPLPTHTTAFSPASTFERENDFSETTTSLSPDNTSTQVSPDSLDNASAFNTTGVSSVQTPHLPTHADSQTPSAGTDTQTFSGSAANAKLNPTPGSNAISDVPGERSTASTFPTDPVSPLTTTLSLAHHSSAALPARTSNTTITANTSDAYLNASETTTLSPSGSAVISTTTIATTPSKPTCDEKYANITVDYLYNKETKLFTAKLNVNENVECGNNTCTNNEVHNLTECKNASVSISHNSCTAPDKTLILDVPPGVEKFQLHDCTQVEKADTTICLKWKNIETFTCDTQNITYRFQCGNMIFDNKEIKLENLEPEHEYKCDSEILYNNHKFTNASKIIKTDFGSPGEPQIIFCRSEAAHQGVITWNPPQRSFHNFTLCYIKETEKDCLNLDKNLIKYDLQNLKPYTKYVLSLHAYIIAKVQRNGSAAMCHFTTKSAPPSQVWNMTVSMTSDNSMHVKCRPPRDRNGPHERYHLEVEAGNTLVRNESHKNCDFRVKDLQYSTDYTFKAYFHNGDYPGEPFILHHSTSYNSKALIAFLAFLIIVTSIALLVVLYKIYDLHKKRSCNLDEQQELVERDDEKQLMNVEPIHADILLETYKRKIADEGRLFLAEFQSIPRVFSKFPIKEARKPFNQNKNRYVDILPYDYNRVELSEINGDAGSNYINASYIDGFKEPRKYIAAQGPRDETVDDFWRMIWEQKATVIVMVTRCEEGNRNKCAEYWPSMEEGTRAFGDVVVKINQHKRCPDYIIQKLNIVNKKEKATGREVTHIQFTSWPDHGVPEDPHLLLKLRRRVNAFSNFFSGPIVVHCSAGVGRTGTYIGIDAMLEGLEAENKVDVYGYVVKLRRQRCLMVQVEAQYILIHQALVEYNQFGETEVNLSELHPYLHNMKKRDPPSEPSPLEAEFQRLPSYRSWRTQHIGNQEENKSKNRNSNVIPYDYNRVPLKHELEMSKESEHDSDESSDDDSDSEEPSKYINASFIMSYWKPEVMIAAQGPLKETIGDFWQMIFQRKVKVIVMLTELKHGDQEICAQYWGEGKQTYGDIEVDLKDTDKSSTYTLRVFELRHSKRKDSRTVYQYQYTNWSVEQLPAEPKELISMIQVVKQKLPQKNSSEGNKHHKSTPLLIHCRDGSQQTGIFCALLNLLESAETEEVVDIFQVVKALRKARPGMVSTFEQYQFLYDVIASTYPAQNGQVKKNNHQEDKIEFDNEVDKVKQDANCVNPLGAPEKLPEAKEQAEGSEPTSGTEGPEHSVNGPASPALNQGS
Description: as §1, §2

[3] = target: T2, CD45 on human cell lines (Raji, MEC-2, …); experiment: flow cytometry on MEC-2 cells, 488/575 nm
Description: as §1, §2

[4] = target: T1, Trx-CD20-T-Sapphire-K3 (Demibody B); experiment: flow cytometry FRET 407/585 nm on CCRF-CEM cells (CD20-); Table 6 rates this as no FRET
Description: as §1, §2

[5] = target: T1, Trx-CD20-T-Sapphire-K3 (Demibody B); experiment: flow cytometry FRET 407/585 nm on Raji cells
Description: as §1, §2

[6] = target: T2, CD45 on human cell lines (Raji, MEC-2, …); experiment: flow cytometry on CCRF-CEM cells, 488/575 nm
Description: as §1, §2

T1 sequence (chain, as listed by the source): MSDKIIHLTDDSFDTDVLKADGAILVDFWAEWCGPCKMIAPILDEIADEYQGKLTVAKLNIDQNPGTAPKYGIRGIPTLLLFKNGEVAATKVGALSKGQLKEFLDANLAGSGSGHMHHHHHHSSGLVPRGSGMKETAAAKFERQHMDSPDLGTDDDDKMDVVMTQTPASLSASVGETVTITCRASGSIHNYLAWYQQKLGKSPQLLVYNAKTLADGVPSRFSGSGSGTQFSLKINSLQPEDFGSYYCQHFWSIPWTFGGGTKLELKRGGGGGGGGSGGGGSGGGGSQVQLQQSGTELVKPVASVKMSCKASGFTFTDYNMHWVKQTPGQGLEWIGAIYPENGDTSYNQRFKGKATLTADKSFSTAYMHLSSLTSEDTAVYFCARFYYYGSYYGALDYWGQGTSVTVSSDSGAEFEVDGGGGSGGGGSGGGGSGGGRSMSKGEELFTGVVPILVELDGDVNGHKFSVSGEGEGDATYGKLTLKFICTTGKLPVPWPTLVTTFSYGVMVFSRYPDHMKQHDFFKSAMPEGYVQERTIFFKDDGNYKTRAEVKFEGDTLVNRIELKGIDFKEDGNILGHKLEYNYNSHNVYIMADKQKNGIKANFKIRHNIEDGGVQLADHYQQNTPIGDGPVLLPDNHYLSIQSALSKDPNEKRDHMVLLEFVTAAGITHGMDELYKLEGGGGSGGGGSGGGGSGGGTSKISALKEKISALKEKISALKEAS

B1: Trx-CD45-mOrange-E3 (Demibody A) (scFv)
chain: [about 100 residues not listed]GSGSGHMHHHHHHSSGLVPRGSGMKETAAAKFERQHMDSPDLGTDDDDKQVQLVESGGGLVQPGGSLKLSCAASGFDFSRYWMSWVRQAPGKGLEWIGEINPTSSTINFTPSLKDKVFISRDNAKNTLYLQMSKVRSEDTALYYCARGNYYRYGDAMDYWGQGTSVTVSKISGGGGSGGGGSGGGGSGGGGSGGGGSSDIVLTQSPASLAVSLGQRATISCRASKSVSTSGYSYLHWYQQKPGQPPKLLIYLASNLESGVPARFSGSGSGTDFTLNIHPVEEEDAATYYCQHSRELPFTFGSGTKLEIKVDGGGGSGGGGSGGGGSGGGRSMVSKGEENNMAIIKEFMRFKVRMEGSVNGHEFEIEGEGEGRPYEGFQTAKLKVTKGGPLPFAWDILSPQFTYGSKAYVKHPADIPDYFKLSFPEGFKWERVMNFEDGGVVTVTQDSSLQDGEFIYKVKLRGTNFPSDGPVMQKKTMGWEASSERMYPEDGALKGEIKMRLKLKDGGHYTSEVKTTYKAKKPVQLPGAYIVGIKLDITSHNEDYTIVEQYERAEGRHSTGGMDELYKLEGGGGSGGGGSGGGGSGGGTSEISALEKEISALEKEISALEKAS
notes: also called DBA; Trx-DBA
For B1, the “FRET ratio of the mean fluorescence (cells + Demibody/cells)” value (from here on “FRET ratio … (cells + Demibody/cells)”) [1] was 1.3 ratio, the “ratio of the mean fluorescence (cells + Demibody/cells)” value [2] was 7.7 ratio and the “ratio of the mean fluorescence (cells + Demibody/cells)” value [3] was 7.8 ratio. For the same binder, the “FRET ratio … (cells + Demibody/cells)” value [4] was 1.2 ratio, the “FRET ratio … (cells + Demibody/cells)” value [5] was 1.6 ratio and the “ratio of the mean fluorescence (cells + Demibody/cells)” value [6] was 7.5 ratio.
